PMC10948934
Residue numbers refer to the chain shown, from its start. No constants are given. Whether binding was seen depends on the method and setting. Binding seen in cells or lysates may run through a third protein. Some binding calls cover weakened binding; strength is not graded here. For some assays here: Tags and fused reporters may be left off the sequences shown. Blank lines part the entries; values can stand above or below the binder they belong to.

By UniProt entry, the sequences of proteins in these tests, tags left out. Where a name states a change or a piece, a line headed by the entry shows the natural chain unless it says otherwise. Chains listed by the source or under a name are the forms on record and can include a tag or linker. Residues count along the entry.
MSP domain of human VAP-B (1-210), WT, C-terminal 6His-tag (O95292, residues 1-210): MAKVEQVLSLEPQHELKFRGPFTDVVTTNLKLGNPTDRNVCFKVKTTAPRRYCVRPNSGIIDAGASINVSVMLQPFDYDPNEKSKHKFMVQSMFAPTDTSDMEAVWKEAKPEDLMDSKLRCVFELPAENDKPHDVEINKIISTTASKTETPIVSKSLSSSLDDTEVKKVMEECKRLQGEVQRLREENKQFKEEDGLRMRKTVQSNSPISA
MSP domain of human VAP-B (1-210), K87D/M89D mutant, C-terminal 6His-tag (O95292, form named): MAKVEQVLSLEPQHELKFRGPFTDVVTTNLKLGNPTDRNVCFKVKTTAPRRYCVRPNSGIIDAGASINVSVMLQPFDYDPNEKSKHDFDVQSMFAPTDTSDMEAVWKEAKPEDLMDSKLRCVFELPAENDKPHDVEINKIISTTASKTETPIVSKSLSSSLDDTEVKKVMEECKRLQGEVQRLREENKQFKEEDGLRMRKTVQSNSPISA

Tests used:
[1] = biological target: T1, MSP domain of human VAP-A (8-212), K94D/M96D mutant, C-terminal 6His-tag (human) (UniProt Q9P0L0); test: pull-down; 100 μg recombinant 6His MSP domain on nickel magnetic beads, incubated with HeLa protein extract 2 h at 4°C in PDB (50 mM Tris-HCl pH 7.4, 50 mM NaCl, 1 mM EDTA, 1% Triton X-100, 5 mM imidazole); eluted with Laemmli buffer; Western blot; only the target purified
T1 sequence: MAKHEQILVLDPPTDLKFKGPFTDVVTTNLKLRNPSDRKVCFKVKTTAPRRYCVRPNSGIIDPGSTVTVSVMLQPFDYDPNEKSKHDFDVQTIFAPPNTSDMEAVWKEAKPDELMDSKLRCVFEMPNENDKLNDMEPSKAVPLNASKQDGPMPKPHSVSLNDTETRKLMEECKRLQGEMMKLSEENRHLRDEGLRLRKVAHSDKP

[2] = biological target: MSP domain of human VAP-B (1-210), WT, C-terminal 6His-tag (human) (UniProt O95292); test: as above
[3] = biological target: T2, MSP domain of human VAP-A (8-212), WT, C-terminal 6His-tag (human) (UniProt Q9P0L0); test: as above
T2 sequence: T1 sequence with D87K, D89M

[4] = biological target: MSP domain of human VAP-B (1-210), K87D/M89D mutant, C-terminal 6His-tag (human) (UniProt O95292); test: as above
[5] = biological target: T3, dVAP-A (Drosophila melanogaster (endogenous in fly heads)) (UniProt Q9W4N8); test: co-IP; fly head lysates (UAS constructs under GMR promoter); dVAP-A antibody or control IgG overnight at 4°C, protein G Sepharose; Western blot
T3 sequence: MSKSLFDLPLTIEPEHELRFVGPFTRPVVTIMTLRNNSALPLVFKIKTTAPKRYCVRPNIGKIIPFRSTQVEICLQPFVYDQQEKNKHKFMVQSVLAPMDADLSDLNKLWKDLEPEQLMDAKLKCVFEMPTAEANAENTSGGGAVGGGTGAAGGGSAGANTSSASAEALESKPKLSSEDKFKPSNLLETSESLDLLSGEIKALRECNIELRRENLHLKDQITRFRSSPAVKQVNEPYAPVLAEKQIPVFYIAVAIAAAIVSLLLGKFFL

- binding [1]: no binding
- binding [2]: no binding
- binding [3]: no binding
- binding [4]: no binding
B1: ORP1S (short isoform of ORP1) (protein, UniProt Q9BXW6-2 1-437)
chain: MSEEKDCGGGDALSNGIKKHRTSLPSPMFSRNDFSIWSILRKCIGMELSKITMPVIFNEPLSFLQRLTEYMEHTYLIHKASSLSDPVERMQCVAAFAVSAVASQWERTGKPFNPLLGETYELVRDDLGFRLISEQVSHHPPISAFHAEGLNNDFIFHGSIYPKLKFWGKSVEAEPKGTITLELLEHNEAYTWTNPTCCVHNIIVGKLWIEQYGNVEIINHKTGDKCVLNFKPCGLFGKELHKVEGYIQDKSKKKLCALYGKWTECLYSVDPATFDAYKKNDKKNTEEKKNSKQMSTSEELDEMPVPDSESVFIIPGSVLLWRIAPRPPNSAQMYNFTSFAMVLNEVDKDMESVIPKTDCRLRPDIRAMENGEIDQASEEKKRLEEKQRAARKNRSKSEEDWKTRWFHQGPNPYNGAQDWIYSGSYWDRNYFNLPDIY

- binding [1]: no binding
- binding [2]: binds
- binding [3]: binds
- binding [4]: no binding
B2: ORP1L (long isoform of ORP1) (protein, UniProt Q9BXW6-1 1-950)
chain: MNTEAEQQLLHHARNGNAEEVRQLLETMARNEVIADINCKGRSKSNLGWTPLHLACYFGHRQVVQDLLKAGAEVNVLNDMGDTPLHRAAFTGRKELVMLLLEYNADTTIVNGSGQTAKEVTHAEEIRSMLEAVERTQQRKLEELLLAAAREGKTTELTALLNRPNPPDVNCSDQLGNTPLHCAAYRAHKQCALKLLRSGADPNLKNKNDQKPLDLAQGAEMKHILVGNKVIYKALKRYEGPLWKSSRFFGWRLFWVVLEHGVLSWYRKQPDAVHNIYRQGCKHLTQAVCTVKSTDSCLFFIKCFDDTIHGFRVPKNSLQQSREDWLEAIEEHSAYSTHYCSQDQLTDEEEEDTVSAADLKKSLEKAQSCQQRLDREISNFLKMIKECDMAKEMLPSFLQKVEVVSEASRETCVALTDCLNLFTKQEGVRNFKLEQEQEKNKILSEALETLATEHHELEQSLVKGSPPASILSEDEFYDALSDSESERSLSRLEAVTARSFEEEGEHLGSRKHRMSEEKDCGGGDALSNGIKKHRTSLPSPMFSRNDFSIWSILRKCIGMELSKITMPVIFNEPLSFLQRLTEYMEHTYLIHKASSLSDPVERMQCVAAFAVSAVASQWERTGKPFNPLLGETYELVRDDLGFRLISEQVSHHPPISAFHAEGLNNDFIFHGSIYPKLKFWGKSVEAEPKGTITLELLEHNEAYTWTNPTCCVHNIIVGKLWIEQYGNVEIINHKTGDKCVLNFKPCGLFGKELHKVEGYIQDKSKKKLCALYGKWTECLYSVDPATFDAYKKNDKKNTEEKKNSKQMSTSEELDEMPVPDSESVFIIPGSVLLWRIAPRPPNSAQMYNFTSFAMVLNEVDKDMESVIPKTDCRLRPDIRAMENGEIDQASEEKKRLEEKQRAARKNRSKSEEDWKTRWFHQGPNPYNGAQDWIYSGSYWDRNYFNLPDIY

- binding [5]: binds
B3: RDGB (retinal degeneration B), UAS-RDGB expressed under GMR promoter (protein, UniProt P43125 1-1259)
chain: MLIKEYRIPLPLTVEEYRIAQLYMIAKKSREESHGEGSGVEIIINEPYKDGPGGNGQYTKKIYHVGNHLPGWIKSLLPKSALTVEEEAWNAYPYTRTRYTCPFVEKFSLDIETYYYPDNGYQDNVFQLSGSDLRNRIVDVIDIVKDQLWGGDYVKEEDPKHFVSDKTGRGPLAEDWLEEYWREVKGKKQPTPRNMSLMTAYKICRVEFRYWGMQTKLEKFIHDVALRKMMLRAHRQAWAWQDEWFGLTIEDIRELERQTQLALAKKMGGGEECSDDSVSEPYVSTAATAASTTGSERKKSAPAVPPIVTQQPPSAEASSDEEGEEEEDDDEDENDAIGTGVDLSANQGGSAQRSRSQSIQMAQKGKFGSKGALHSPVGSAHSFDLQVANWRMERLEVDSKSNSDEEFFDCLDTNETNSLAKWSSLELLGEGDDSPPPHGGPSSAASVGGRGNSRQEDSIFNQDFLMRVASERGNKRQLRSSASVDRSHDSSPPGSPSTPSCPTTILILVVHAGSVLDAASELTAKKSDVTTFRGSFEAVMRQHYPSLLTHVTIKMVPCPSICTDALGILSSLSPYSFDASPSAADIPNIADVPIGAIPLLSVASPEFHETVNKTVAAANIVYHEFLKSEEGHGFSGQIVMLGDSMGSLLAYEALCRSNGSQPGTASGASNSGGDAATNINTHNPLSPRNSRLDDDERFIEADLDAKRLLVAPSPRRRRSSSSSDSRATKLDFEVCDFFMFGSPLSVVLAARKLHDAKAALPRPNCHQVYNLFHPTDPIASRLEPLLSARFSILAPVNVPRYAKYPLGNGQPLHLLEVIQSHPQHFNDGNNLLAGRRLSDASMQSTISGLIENVSLSTIHALQNKWWGTKRLDYALYCPEGLSNFPAHALPHLFHASYWESPDVIAFILRQIGKFEGIPFVGSNDDKDNASFHPGQPREKWIKKRTSVKLKNVAANHRANDVIVQEGREQRLNARFMYGPLDMITLHGEKVDVHIMKDPPAGEWTFLSTEVTDKNGRISYSIPDQVSLGYGIYPVKMVVRGDHTSVDCYMAVVPPLTECVVFSIDGSFTASMSVTGRDPKVRAGAVDVCRHWQELGYLLIYITGRPDMQQQRVVSWLSQHNFPHGLISFADGLSTDPLGHKTAYLNNLVQNHGISITAAYGSSKDISVYTNVGMRTDQIFIVGKVGKKLQSNATVLSDGYAAHLAGLQAVGGSRPAKGNARMVIPRGCFNLPGQTANPRRRRYLERKTVSSCCLMVFQTT

- binding [5]: binds
B4: dCert::TurboID (protein, UniProt Q9Y128 1-601)
chain: MDTNAGESLGASPPSSNEAAAGSQSQSDASEEEEYLDNSIELRGYLSKWTNYIYGWQPRYIVLKDGTLSYYKSESESDFGCRGAISLTKATIKAHESDELRFDVVVNNLNNWCLRAETSEDRMHWVDVLQLYKADSGSTDTTSLRRHGSTMSLQSNTISLTSGGSLKKTQRNLREKVGELETFKDILFGQIETLQRYFDACSEVNKNNAQPLDLGDGLKSIDFKGESITFRATTSGVLTTLQHCLEIIAESDESWKRKLEREIDKRRRSEDQSKKLKDEVEKMKRLSYPGPDFEEGPHSTLPEDEFFDAVETGLDKIEEDMQLRFKLKLQSQISQTLVNVPHEAVAEGEEAREEFGTGAEATSHALWPEIDRVCKEQLHYAREGVGQDGNGWQIFADEGEIKMYKREEEVNGLVMDPLKAYHTVQGVTAREMCHYFFMPEFRNDWETTLEDCTILEKISADTLLFLQTHKRIWPASQRDAQFWSHMRKITDNLEPGARDMWVVCNNSTEYAKQESKNGKCVRIFLTVILACQTHLPEGYVKGQPLNRNDLTCKITYCSVVNPGGWAPASALRAVYKREYPKFLKRFTGYVIDQCKDKPIMF

- binding [1]: no binding
- binding [2]: binds
- binding [3]: binds
- binding [4]: no binding
B5: STARD3NL (protein, UniProt O95772 1-234)
chain: MNHLPEDMENALTGSQSSHASLRNIHSINPTQLMARIESYEGREKKGISDVRRTFCLFVTFDLLFVTLLWIIELNVNGGIENTLEKEVMQYDYYSSYFDIFLLAVFRFKVLILAYAVCRLRHWWAIALTTAVTSAFLLAKVILSKLFSQGAFGYVLPIISFILAWIETWFLDFKVLPQEAEEENRLLIVQDASERAALIPGGLSDGQFYSPPESEAGSEEAEEKQDSEKPLLEL
